# Measured values as given in PubChem BioAssay AID1508623 (National Center for Advancing Translational Sciences (NCATS), 2021).
# Several values for one entry are separate records, joined by “and”; a condition that tells them apart may be missing. Equal entries are not always repeated. About 450 (0.94%) of roughly 48,000 compounds were called active. The inconclusive results got no clear call from the source; some entries with a clear call stand among them for comparison. Calls follow the shape of the dose curve; as a rule, active = well fitted inhibition curve with a large enough effect; inconclusive = small, poorly fitted or top-dose-only effect; inactive = no such curve, though single readings can be large or run the other way. Where the call is inconclusive, the potency comes from a doubtful curve fit.
# Test: Primary qHTS for Identification of Small Molecule Inhibitors of Huntingtin Promoter Activity; also: nearly all actives have a fitted effect of over 50% in size
# Details: HEK293 HTT promoter firefly luciferase reporter (activity 0% = vehicle and -100% = no light), 24 h; series mostly up to 57.5 µM
# Method in brief: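 Luminescence was read after Dual-Glo reagent and a 10 min room-temperature incubation. Values were normalized to vehicle (0% activity) and zero RLU (-100% activity). Reporter HEK293 cells had been exposed to compounds (up to 57.5 uM final) for 24 h.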
# Potency is read from the fitted curve at half-maximal effect; tags tell the direction and shape of the fitted curve.
row,Compound,Potency
1,Cn1cnc([N+](=O)[O-])c1Sc1ncnc2nc[nH]c12,"inconclusive: 14.1 µM [inhibitor, partial curve] and inconclusive: 12.2 µM [inhibitor, partial curve]"
2,Cc1ccc(Cl)cc1N(C)C(=O)C1CCCN(c2ncnc3onc(-c4ccc(F)cc4)c23)C1 (configuration not stated),"inconclusive: 28.2 µM [inhibitor, partial curve, poor fit]"
3,COc1ccc(-c2nc(SCC(=O)NCc3ccccc3Cl)n[nH]2)cc1,"inconclusive: 10 µM [inhibitor, partial curve, poor fit]"
4,CC1=C(C(=O)OC2CCCC2)C(c2ccccc2C(F)(F)F)CC(=O)N1 (configuration not stated),"inconclusive: 31.6 µM [inhibitor, single point]"
5,Cc1ccc(OCC(=O)Nc2cccc(C(=O)OCc3cc(=O)n4c(C)csc4n3)c2)cc1,"inconclusive: 35.5 µM [inhibitor, partial curve, poor fit]"
6,CC(=O)c1ccc(N2CCN(c3ncnc4c3cnn4-c3cc(Cl)ccc3C)CC2)cc1,"inconclusive: 3.16 µM [inhibitor, full curve]"
7,COc1cc(-c2nc3ccc(Cl)cn3c2Nc2ccc3c(c2)OCCO3)ccc1O,inactive
8,O=C(c1ccc2c(c1)N(Cc1ccc(Cl)cc1)C(=O)c1ccccc1S2(=O)=O)N1CCN(c2ccccn2)CC1,"inconclusive: 39.8 µM [inhibitor, single point]"
9,CNC(=O)c1ccc2c(C(=Nc3cccc(CN(C)C)c3)c3ccccc3)c(O)[nH]c2c1,"inconclusive: 13.7 µM [inhibitor, partial curve, poor fit]"
10,CCCCn1c(=N)n(CCOc2ccccc2OC)c2ccccc21,"inconclusive: 17.8 µM [inhibitor, partial curve]"
11,O=c1[nH]c2ccccc2n1CCCN1CCN(C(c2ccccc2)c2ccccc2)CC1,"inconclusive: 11.2 µM [inhibitor, partial curve, poor fit]"
12,O=C(Nc1ccc(C(F)(F)F)cc1)C(Cc1ccccc1)n1cccc1 (configuration not stated),"inconclusive: 28.2 µM [inhibitor, single point]"
13,O=C(NCCCN1CCN(c2ccccc2F)CC1)c1ccc2nc(N3CCCCC3)sc2c1,"inconclusive: 0.794 µM [inhibitor, full curve, poor fit]"
14,Cc1cc2c(cc3c(SCc4ccccc4Cl)nnc(C)n32)o1,inactive
15,CCN(C(=O)C1CCCN(c2ncnc3c2nc2n3CCCCC2)C1)c1cccc(Cl)c1 (configuration not stated),"inconclusive: 31.6 µM [inhibitor, partial curve, poor fit]"
16,Cc1c(CCNC(=O)C(C)(C)C)sc2nc(-c3ccc(F)cc3)nn12,"inconclusive: 28.2 µM [inhibitor, single point]"
17,Cc1cc(Nc2cc(F)ccc2C)nc(-n2nc(C)cc2C)n1,"inconclusive: 15.8 µM [inhibitor, partial curve, poor fit]"
18,CN(C)S(=O)(=O)N(CC(=O)NCCSc1ccccc1)c1ccccc1,inactive
19,Cc1c(C(=O)N2CCC(C)CC2)c(S(=O)(=O)Nc2ccc(OC(F)(F)F)cc2)c(C)n1C,"inconclusive: 39.8 µM [inhibitor, partial curve, poor fit]"

row,Compound,Potency
1,CCN(CC)CCNC(C(=O)OCCC(C)C)c1ccccc1 (configuration not stated),inactive
2,Cc1ccc(CCNC(=O)c2c(C)nn(-c3ccc(F)cc3)c2-n2cccc2)cc1,"inconclusive: 17.8 µM [inhibitor, partial curve, poor fit]"
3,CCOc1ccccc1NC(=O)N1CCC2(CC1)Oc1ccccc1C(=O)N2Cc1ccccc1F,"inconclusive: 39.8 µM [inhibitor, single point]"
4,COc1ccc(NC(=O)Nc2nnc(N(CC(C)C)CC(C)C)s2)c(OC)c1,"inconclusive: 25.1 µM [inhibitor, single point]"
5,CCN(C(=O)c1cc2c(s1)-c1ccccc1OC2)c1cccc(C(F)(F)F)c1,"inconclusive: 28.2 µM [inhibitor, partial curve, poor fit]"
6,COc1ccc(NC(=O)c2cc(C3CC3)nc3c2c(C)nn3-c2ccccc2)cc1OC,"inconclusive: 31.6 µM [inhibitor, single point]"
7,O=C(Cn1c(-c2cccs2)cc2ccccc21)NCCCN1CCN(c2ccccc2F)CC1,"inconclusive: 22.4 µM [inhibitor, single point]"
8,Cc1ccc(NC(=O)c2c(NC(=O)C(F)(F)F)sc3c2CCCCC3)cc1,active: 1.41 µM
9,CCCN1C(=O)C(O)(CC(=O)c2ccc(CC)cc2)c2cc(Br)ccc21 (configuration not stated),"inconclusive: 14.1 µM [inhibitor, partial curve, poor fit]"
10,CC(=O)N1c2ccc(S(=O)(=O)NCC3CCC(C(=O)Nc4ccccc4C)CC3)cc2CC1C (configuration not stated),"inconclusive: 22.4 µM [inhibitor, partial curve]"
11,COc1ccc2c(c1)CCc1sc(NC(=O)c3ccc(Cl)cc3)nc1-2,"inconclusive: 39.8 µM [inhibitor, single point]"
12,COc1ccc(-n2c(=O)c3ccccc3n(CC(=O)NCCc3ccccc3)c2=O)c(OC)c1,"inconclusive: 39.8 µM [inhibitor, single point]"
13,CC1CCN(S(=O)(=O)c2cn(CC(=O)Nc3ccc(F)c(Cl)c3)c(=O)c3ccccc23)CC1,"inconclusive: 35.5 µM [inhibitor, single point]"
14,O=C(CSc1nccn1-c1cccc(Cl)c1)Nc1cccc(C(F)(F)F)c1,"inconclusive: 39.8 µM [inhibitor, single point]"
15,CC(C)c1ccc(NC(=O)c2ccc(F)c(S(=O)(=O)N3CCCC3)c2)cc1,"inconclusive: 17.8 µM [inhibitor, partial curve, poor fit]"
16,CCC(C(=O)OCCN1CCOC(c2ccccc2)C1C)c1ccccc1 (configuration not stated),inactive
17,CCC(C)NC(=O)Cn1c(=O)n(CC2CCC(C(=O)NC)CC2)c(=O)c2sccc21 (configuration not stated),inactive
18,Cc1cccc(NC(=O)C2CCN(S(=O)(=O)c3cccc4nsnc34)CC2)c1,"inconclusive: 28.2 µM [inhibitor, partial curve, poor fit]"
